Results published in PubChem BioAssay AID588855 (National Center for Advancing Translational Sciences (NCATS), 2011).
Screen size: about 410,000 compounds; about 5,000 (1.2%) were called active. The shares of active, inactive and inconclusive entries below differ from those in the screen. Calls come from the whole dose curve; as a rule, active = well fitted inhibition curve with a large enough effect; inconclusive = small, poorly fitted or top-dose-only effect; inactive = no such curve, though single readings can be large or run the other way. A potency beside an inconclusive call is a rough fit, not a confirmed value.

test: qHTS for Inhibitors of TGF-b; conditions: HepG2 CAGA-GFP TGF-b/SMAD3 reporter, GFP fluorescence, 18 h, TGF-beta stimulated, 500 pg/mL final; series mostly up to 46.1 µM; note: nearly all actives have a fitted effect of over 65% in size
Summary of the method: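 HEPG2 CAGA-GFP cells (1000/well, DMEM with 1% FBS) were pre-incubated 2 h at 37 degrees C, given compound by pin tool, then stimulated with TGF-beta at 500 pg/mL final for 18 h before per-cell GFP fluorescence imaging.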
Potency is the fitted concentration of half-maximal effect; tags give direction and shape of the fitted curve.

| Structure (SMILES) | Potency |
| --- | --- |
| Cc1ccccc1-n1cc(C(=O)c2cc(Cl)ccc2O)cc(C#N)c1=O | inconclusive: 35.5 µM [inhibitor, partial curve, poor fit] |
| CCOc1ccc(Br)cc1S(=O)(=O)Nc1ccc(NC(=O)c2ccccc2F)cc1 | inconclusive: 25.1 µM [inhibitor, single point] |
| O=C(Nc1cc(Cl)ccc1O)C1CC(c2ccccc2O)=NO1 (stereo not drawn) | inconclusive: 31.6 µM [inhibitor, single point] |
| CCCCn1c(=O)[nH]c(=O)c2c1nc(-c1ccc(OC)c(Br)c1)n2CC(C)C | inconclusive: 35.5 µM [inhibitor, single point] |
| CC(C)c1ccc2c(c1)CCC1C(C)(CN)CCCC21C (stereo not drawn) | inconclusive: 22.4 µM [inhibitor, single point] |
| Cc1cccc(NC(=O)c2oc3c(c2C)-c2[nH]ncc2CC3)c1C | inconclusive: 1.58 µM [inhibitor, full curve, poor fit] |
| CN1CC(C(=O)Nc2ccc(F)c(Cl)c2)CC1=O (stereo not drawn) | inconclusive: 0.891 µM [inhibitor, full curve, poor fit] |
| CCN(CC)CCN(C)c1ccc(/C=C/c2ccnc3ccccc23)cc1 | inconclusive: 11.2 µM [inhibitor, partial curve, poor fit] |
| CC1CCc2c(sc3ncn(CC(=O)N=Nc4c(O)[nH]c5ccccc45)c(=O)c23)C1 (stereo not drawn) | inactive |
| O=[N+]([O-])c1ccc(CNc2cccc(F)c2)s1 | inactive |
| CC(C)=CCC12Oc3cc(O)ccc3C1(O)Oc1cc3c(c(O)c1C2=O)C=CC(C)(C)O3 (stereo not drawn) | inconclusive: 35.5 µM [inhibitor, single point] |
| CCc1nn2c(-c3ccccc3OC)ccnc2c1-c1ccc(F)cc1 | inconclusive: 20 µM [inhibitor, single point] |
| S=c1[nH]c2ccccc2n1Cc1ccccc1 | inactive |
| COc1ccc(CCNC(=O)c2ccc(OCC(=O)N3CCOCC3)c(OC)c2)cc1OC | inconclusive: 0.562 µM [inhibitor, partial curve, poor fit] |
| Cc1ccc(NC(=O)CSc2nc(-c3ccc(F)cc3)nc3c2Cc2c(CO)cnc(C)c2O3)cc1C | inactive |
| CN(Cc1ccccc1)C(=O)CCS(=O)(=O)c1cc(Br)cc2c1N(C(=O)C1CC1)CC2 | inactive |
| O=C(NC(=O)N1CCN(c2cccc(Cl)c2)CC1)c1ccc(Cl)cc1 | inconclusive: 35.5 µM [inhibitor, single point] |
| O=C(CSc1nccn1-c1cccc(Cl)c1)Nc1cccc(C(F)(F)F)c1 | inconclusive: 22.4 µM [inhibitor, single point] |
| Cc1ccc(C2=N/C(=C\c3ccc(F)cc3)C(=O)N2)cc1 | inconclusive: 12.6 µM [inhibitor, partial curve] |
| O=C1NC2(CCCCC2)N=C1c1ccc(Br)cc1 | inactive |
| CC1=NN(c2ccc(Cl)cc2)C(=O)C1C(c1cccc(O)c1)c1c(C)[nH]n(-c2ccc(Cl)cc2)c1=O (stereo not drawn) | inconclusive: 35.5 µM [inhibitor, single point] |
| Cn1cc(/C=C2/SC(=O)N(c3ccccc3)C2=O)c2ccccc21 | inactive |

| Structure (SMILES) | Potency |
| --- | --- |
| Cc1ccc(S(=O)(=O)/C(C#N)=C/c2c(N3CCC(C(N)=O)CC3)nc3c(C)cccn3c2=O)cc1 | inactive |
| C=CCOc1c(Br)cc(/C=C2/C(=O)ON=C2C)cc1OC | inactive |
| Cc1ccc(NC(=O)CCc2c(C)nc3c(-c4ccccc4)c(C)nn3c2C)c(C)c1 | inconclusive: 0.501 µM [inhibitor, partial curve, poor fit] |
| CCn1c(SCc2ccc(C#N)cc2)nnc1-c1cccc(Cl)c1 | inactive |
| O=C1CN(c2nc(-c3cccs3)nc3sc4c(c23)CCCC4)CCN1 | inactive |
| COc1ccc(-n2nnnc2C(c2ccccc2)N2CCN(C/C=C/c3ccccc3)CC2)cc1 (stereo not drawn) | inconclusive: 35.5 µM [inhibitor, single point] |
| CC1CCN(S(=O)(=O)c2cn(CC(=O)Nc3ccc(F)c(Cl)c3)c(=O)c3ccccc23)CC1 | inconclusive: 11.2 µM [inhibitor, single point] |
| Cc1cccc(-n2cc(-c3ccccc3)c3c(NC(C)C)ncnc32)c1 | inactive |
| Cc1ccc(C(=O)c2c(C)oc3c2C(=O)C(=O)c2ccccc2-3)cc1 | inconclusive: 35.5 µM [inhibitor, single point] |
| COc1ccc2c(c1)CCc1sc(NC(=O)c3ccc(Cl)cc3)nc1-2 | inconclusive: 11.2 µM [inhibitor, partial curve, poor fit] |
| CCC1=Nc2cc(C(=O)NC(C)c3ccccc3)ccc2Sc2ccc(Cl)cc21 (stereo not drawn) | inactive |
| OC(c1ccc(F)c(F)c1)c1nc(-c2ccc(F)c(Cl)c2)cs1 (stereo not drawn) | inconclusive: 35.5 µM [inhibitor, single point] |
| O=C(O)CCCN1C(=O)/C(=C\c2ccccc2OCc2ccccc2)SC1=S | inactive |
| COCC(=O)N1CCC(Oc2ccc(C(=O)N(C)Cc3nccs3)cc2)CC1 | inconclusive: 35.5 µM [inhibitor, partial curve, poor fit] |
| CCCCCCCCCC[n+]1cccc2cc(Cl)ccc21 | inconclusive: 35.5 µM [inhibitor, single point] |
| Cc1cc(C2=NNC(=NC3CC3)SC2)c(C)n1Cc1ccco1 | inconclusive: 35.5 µM [inhibitor, single point] |
| COc1ccc(C(=O)CSc2nnc(C3CCCCC3)n2N)c(OC)c1 | inconclusive: 28.2 µM [inhibitor, partial curve, poor fit] |
| CNC(=O)C(=O)Nc1cc2c3c(c1)CCC(=O)N3CCC2 | inactive |
| CN(CCOc1ccccc1)CC(=O)Nc1ccc(Cl)c(S(=O)(=O)N(C)C)c1 | inconclusive: 2.51 µM [inhibitor, partial curve, poor fit] |
| CN(C)S(=O)(=O)c1ccc(Cl)c(NC(=O)CN2CCNC(=O)C2)c1 | inactive |
| COc1ccc(CNc2nc(S(=O)(=O)c3ccccc3)c(Cl)s2)cc1OC | inconclusive: 11.2 µM [inhibitor, partial curve, poor fit] |
